# Results: the supplement of paper PMC8728848
# Some of the results follow.
# B1: LecRKVI.2 (protein)
# chain: RTTTNFAFRGFNGNQSKIRIEGAAMIKPDGLLRLTDRKSNVTGTAFYHKPVRLLNRNSTNVTIRSFSTSFVFVIIPSSSSNKGFGFTFTLSPTPYRLNAGSAQYLGVFNKENNGDPRNHVFAVEFDTVQGSRDDNTDRIGNDIGLNYNSRTSDLQEPVVYYNNDDHNKKEDFQLESGNPIQALLEYDGATQMLNVTVYPARLGFKPTKPLISQHVPKLLEIVQEEMYVGFTASTGKGQSSAHYVMGWSFSSGGERPIADVLILSELPPPPPNKAKKEGLNS
# How the values were obtained:
# Assay in all cases: glycan array binding signal (z-score within array); higher = stronger binding
# Settings in all cases: glycan notation: IUPAC condensed, linker removed
# Neu5Ac(a2-3)GalNAc = target: Neu5Ac(a2-3)GalNAc
# Outline: (§1)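 The binding signal is a Z-score computed within each array. Data were drawn from 3228 arrays in the Consortium for Functional Glycomics database, restricted to those with a known protein sequence. Scores were averaged over arrays of the same protein sequence at different concentrations or buffers, and over linkers, and negative values can be taken as non-binding.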
# [1] = target: Neu5Ac(a2-3)GalNAc(b1-4)GlcNAc
# Outline: as §1
# [2] = target: Neu5Ac(a2-3)[GalNAc(b1-4)]Gal(b1-4)Glc
# Outline: as §1
# [3] = target: Neu5Ac(a2-3)[GalNAc(b1-4)]Gal(b1-4)GlcNAc
# Outline: as §1
# [4] = target: Neu5Ac(a2-3)[GalNAc(b1-4)]Gal(b1-4)GlcNAc(b1-3)GalNAc
# Outline: as §1
# [5] = target: Neu5Ac(a2-3)[Neu5Ac(a2-6)]GalNAc
# Outline: as §1
# Neu5Ac(a2-6)Gal = target: Neu5Ac(a2-6)Gal
# Outline: as §1
# [6] = target: Neu5Ac(a2-6)Gal(b1-3)GlcNAc(b1-3)[Gal(b1-4)GlcNAc(b1-6)]Gal(b1-4)Glc
# Outline: as §1
# Neu5Ac(a2-6)Gal(b1-4)Glc = target: Neu5Ac(a2-6)Gal(b1-4)Glc
# Outline: as §1
# [7] = target: Neu5Ac(a2-6)Gal(b1-4)GlcNAc
# Outline: as §1
# [8] = target: Neu5Ac(a2-6)Gal(b1-4)GlcNAc(b1-2)Man
# Outline: as §1
# [9] = target: Neu5Ac(a2-6)Gal(b1-4)GlcNAc(b1-2)Man(a1-3)Man(b1-4)GlcNAc(b1-4)GlcNAc
# Outline: as §1
# [10] = target: Neu5Ac(a2-6)Gal(b1-4)GlcNAc(b1-2)Man(a1-3)[Gal(b1-4)GlcNAc(b1-2)Man(a1-6)]Man(b1-4)GlcNAc(b1-4)GlcNAc
# Outline: as §1
# [11] = target: Neu5Ac(a2-6)Gal(b1-4)GlcNAc(b1-2)Man(a1-3)[GlcNAc(b1-2)Man(a1-6)]Man(b1-4)GlcNAc(b1-4)GlcNAc
# Outline: as §1
# [12] = target: Neu5Ac(a2-6)Gal(b1-4)GlcNAc(b1-2)Man(a1-3)[GlcNAc(b1-4)][Neu5Ac(a2-6)Gal(b1-4)GlcNAc(b1-2)Man(a1-6)]Man(b1-4)GlcNAc(b1-4)GlcNAc
# Outline: as §1
# [13] = target: Neu5Ac(a2-6)Gal(b1-4)GlcNAc(b1-2)Man(a1-3)[Man(a1-6)]Man(b1-4)GlcNAc(b1-4)GlcNAc
# Outline: as §1
# [14] = target: Neu5Ac(a2-6)Gal(b1-4)GlcNAc(b1-2)Man(a1-3)[Neu5Ac(a2-3)Gal(b1-4)GlcNAc(b1-2)Man(a1-6)]Man(b1-4)GlcNAc(b1-4)GlcNAc
# Outline: as §1
# [15] = target: Neu5Ac(a2-6)Gal(b1-4)GlcNAc(b1-2)Man(a1-3)[Neu5Ac(a2-6)Gal(b1-4)GlcNAc(b1-2)Man(a1-6)]Man(b1-4)GlcNAc(b1-4)GlcNAc
# Outline: as §1
# [16] = target: Neu5Ac(a2-6)Gal(b1-4)GlcNAc(b1-2)Man(a1-3)[Neu5Ac(a2-6)Gal(b1-4)GlcNAc(b1-2)Man(a1-6)]Man(b1-4)GlcNAc(b1-4)[Fuc(a1-6)]GlcNAc
# Outline: as §1
# [17] = target: Neu5Ac(a2-6)Gal(b1-4)GlcNAc(b1-2)Man(a1-6)Man(b1-4)GlcNAc(b1-4)GlcNAc
# Outline: as §1
# [18] = target: Neu5Ac(a2-6)Gal(b1-4)GlcNAc(b1-2)Man(a1-6)[Gal(b1-4)GlcNAc(b1-2)Man(a1-3)]Man(b1-4)GlcNAc(b1-4)GlcNAc
# Outline: as §1
# [19] = target: Neu5Ac(a2-6)Gal(b1-4)GlcNAc(b1-2)Man(a1-6)[GlcNAc(b1-2)Man(a1-3)]Man(b1-4)GlcNAc(b1-4)GlcNAc
# Outline: as §1
# [20] = target: Neu5Ac(a2-6)Gal(b1-4)GlcNAc(b1-2)Man(a1-6)[Man(a1-3)]Man(b1-4)GlcNAc(b1-4)GlcNAc
# Outline: as §1
# [21] = target: Neu5Ac(a2-6)Gal(b1-4)GlcNAc(b1-2)[Neu5Ac(a2-6)Gal(b1-4)GlcNAc(b1-4)]Man(a1-3)[GlcNAc(b1-4)][Neu5Ac(a2-6)Gal(b1-4)GlcNAc(b1-2)[Neu5Ac(a2-6)Gal(b1-4)GlcNAc(b1-6)]Man(a1-6)]Man(b1-4)GlcNAc(b1-4)GlcNAc
# Outline: as §1
# [22] = target: Neu5Ac(a2-6)Gal(b1-4)GlcNAc(b1-2)[Neu5Ac(a2-6)Gal(b1-4)GlcNAc(b1-4)]Man(a1-3)[GlcNAc(b1-4)][Neu5Ac(a2-6)Gal(b1-4)GlcNAc(b1-4)Man(a1-6)]Man(b1-4)GlcNAc(b1-4)GlcNAc
# Outline: as §1
# [23] = target: Neu5Ac(a2-6)Gal(b1-4)GlcNAc(b1-2)[Neu5Ac(a2-6)Gal(b1-4)GlcNAc(b1-6)]Man(a1-6)[Neu5Ac(a2-6)Gal(b1-4)GlcNAc(b1-2)Man(a1-3)][GlcNAc(b1-4)]Man(b1-4)GlcNAc(b1-4)GlcNAc
# Outline: as §1
# [24] = target: Neu5Ac(a2-6)Gal(b1-4)GlcNAc(b1-3)Gal(b1-3)GlcNAc
# Outline: as §1
# [25] = target: Neu5Ac(a2-6)Gal(b1-4)GlcNAc(b1-3)Gal(b1-4)GlcNAc
# Outline: as §1
# [26] = target: Neu5Ac(a2-6)Gal(b1-4)GlcNAc(b1-3)Gal(b1-4)GlcNAc(b1-2)Man(a1-3)[Neu5Ac(a2-6)Gal(b1-4)GlcNAc(b1-3)Gal(b1-4)GlcNAc(b1-2)Man(a1-6)]GalNAc
# Outline: as §1
# [27] = target: Neu5Ac(a2-6)Gal(b1-4)GlcNAc(b1-3)Gal(b1-4)GlcNAc(b1-3)Gal(b1-4)GlcNAc
# Outline: as §1
# [28] = target: Neu5Ac(a2-6)Gal(b1-4)GlcNAc(b1-3)Gal(b1-4)GlcNAc(b1-3)Gal(b1-4)GlcNAc(b1-2)Man(a1-3)[Neu5Ac(a2-6)Gal(b1-4)GlcNAc(b1-3)Gal(b1-4)GlcNAc(b1-3)Gal(b1-4)GlcNAc(b1-2)Man(a1-6)]GalNAc
# Outline: as §1
# [29] = target: Neu5Ac(a2-6)Gal(b1-4)GlcNAc(b1-3)Gal(b1-4)GlcNAc(b1-3)GalNAc
# Outline: as §1
# [30] = target: Neu5Ac(a2-6)Gal(b1-4)GlcNAc(b1-3)Gal(b1-4)GlcNAc(b1-3)[Neu5Ac(a2-6)Gal(b1-4)GlcNAc(b1-3)Gal(b1-4)GlcNAc(b1-6)]GalNAc
# Outline: as §1
# [31] = target: Neu5Ac(a2-6)Gal(b1-4)GlcNAc(b1-3)Gal(b1-4)GlcNAc(b1-6)[Gal(b1-3)]GalNAc
# Outline: as §1
# [32] = target: Neu5Ac(a2-6)Gal(b1-4)GlcNAc(b1-3)Gal(b1-4)[Fuc(a1-3)]GlcNAc(b1-3)Gal(b1-4)[Fuc(a1-3)]GlcNAc
# Outline: as §1
# [33] = target: Neu5Ac(a2-6)Gal(b1-4)GlcNAc(b1-3)GalNAc
# Outline: as §1
# [34] = target: Neu5Ac(a2-6)Gal(b1-4)GlcNAc(b1-3)[Neu5Ac(a2-6)Gal(b1-4)GlcNAc(b1-6)]GalNAc
# Outline: as §1
binder,measurement,setting,value
B1,glycan array binding signal (z-score),Neu5Ac(a2-3)GalNAc,-0.25
same,glycan array binding signal (z-score),[1],-0.33
same,glycan array binding signal (z-score),[2],0.016
same,glycan array binding signal (z-score),[3],-0.286
same,glycan array binding signal (z-score),[4],-0.005
same,glycan array binding signal (z-score),[5],-0.351
same,glycan array binding signal (z-score),Neu5Ac(a2-6)Gal,-0.33
same,glycan array binding signal (z-score),[6],-0.364
same,glycan array binding signal (z-score),Neu5Ac(a2-6)Gal(b1-4)Glc,-0.337
same,glycan array binding signal (z-score),[7],-0.368
same,glycan array binding signal (z-score),[8],-0.467
same,glycan array binding signal (z-score),[9],-0.221
same,glycan array binding signal (z-score),[10],0.37
same,glycan array binding signal (z-score),[11],-0.274
same,glycan array binding signal (z-score),[12],-0.376
same,glycan array binding signal (z-score),[13],-0.342
same,glycan array binding signal (z-score),[14],-0.387
same,glycan array binding signal (z-score),[15],0.07
same,glycan array binding signal (z-score),[16],-0.24
same,glycan array binding signal (z-score),[17],-0.281
same,glycan array binding signal (z-score),[18],0.669
same,glycan array binding signal (z-score),[19],-0.347
same,glycan array binding signal (z-score),[20],-0.381
same,glycan array binding signal (z-score),[21],-0.276
same,glycan array binding signal (z-score),[22],-0.327
same,glycan array binding signal (z-score),[23],-0.401
same,glycan array binding signal (z-score),[24],-0.447
same,glycan array binding signal (z-score),[25],-0.367
same,glycan array binding signal (z-score),[26],3.81
same,glycan array binding signal (z-score),[27],-0.339
same,glycan array binding signal (z-score),[28],0.443
same,glycan array binding signal (z-score),[29],-0.398
same,glycan array binding signal (z-score),[30],-0.215
same,glycan array binding signal (z-score),[31],1.58
same,glycan array binding signal (z-score),[32],-0.352
same,glycan array binding signal (z-score),[33],-0.219
same,glycan array binding signal (z-score),[34],0.407
